# Data from PMC4336329 (PLoS ONE, 2015).
# About 14,000 (4.5%) of roughly 310,000 compounds showed an effect of 50% or more. Effects have a minus sign here. This is one part of the list.
# Biological target: human ether-à-go-go-related gene (hERG) potassium channel (human, UniProt Q12809)
# Experiment: primary screen, population patch clamp on CHO cells stably expressing hERG
# 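Further: peak tail current of the secondary pulse compared with the same well before compound.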
# Chain of human ether-à-go-go-related gene (hERG) potassium channel (Q12809 whole entry, looked up): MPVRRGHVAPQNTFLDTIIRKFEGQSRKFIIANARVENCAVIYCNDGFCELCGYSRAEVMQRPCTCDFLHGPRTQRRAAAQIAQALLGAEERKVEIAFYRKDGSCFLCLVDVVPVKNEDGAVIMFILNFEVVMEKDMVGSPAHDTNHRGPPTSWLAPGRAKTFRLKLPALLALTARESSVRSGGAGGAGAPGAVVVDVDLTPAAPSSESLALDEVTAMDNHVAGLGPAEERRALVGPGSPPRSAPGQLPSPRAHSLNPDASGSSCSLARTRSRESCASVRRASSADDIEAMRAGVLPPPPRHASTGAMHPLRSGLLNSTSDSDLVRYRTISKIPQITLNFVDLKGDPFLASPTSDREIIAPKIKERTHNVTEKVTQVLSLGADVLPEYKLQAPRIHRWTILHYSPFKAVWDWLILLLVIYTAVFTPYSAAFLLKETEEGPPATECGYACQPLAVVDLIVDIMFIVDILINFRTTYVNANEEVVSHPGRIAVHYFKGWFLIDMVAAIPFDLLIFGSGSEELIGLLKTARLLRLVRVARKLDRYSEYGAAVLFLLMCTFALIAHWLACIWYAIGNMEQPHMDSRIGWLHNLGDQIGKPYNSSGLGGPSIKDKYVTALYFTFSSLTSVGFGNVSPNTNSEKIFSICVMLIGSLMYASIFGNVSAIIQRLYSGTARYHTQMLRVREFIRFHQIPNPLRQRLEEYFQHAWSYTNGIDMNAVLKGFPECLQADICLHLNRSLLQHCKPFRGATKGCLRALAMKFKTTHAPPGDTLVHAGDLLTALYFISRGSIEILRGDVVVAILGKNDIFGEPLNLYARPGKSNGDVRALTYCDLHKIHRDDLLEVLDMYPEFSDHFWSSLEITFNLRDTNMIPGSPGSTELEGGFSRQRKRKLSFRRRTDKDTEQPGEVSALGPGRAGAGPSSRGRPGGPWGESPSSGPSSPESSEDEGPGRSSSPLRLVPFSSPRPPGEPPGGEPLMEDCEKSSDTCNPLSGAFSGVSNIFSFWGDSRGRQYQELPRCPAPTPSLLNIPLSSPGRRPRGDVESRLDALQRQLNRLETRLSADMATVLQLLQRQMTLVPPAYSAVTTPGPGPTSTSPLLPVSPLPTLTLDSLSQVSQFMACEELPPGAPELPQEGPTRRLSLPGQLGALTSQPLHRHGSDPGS
row,SMILES,"hERG current change (%, negative = inhibition) at 10uM [%]"
1,Cc1ccccc1S(=O)(=O)Nc1nc2ccccc2nc1Cl,3.98
2,NC1=NC(=O)C2(COC(c3cccc([N+](=O)[O-])c3)OC2)S1 (stereo not shown),-4.96
3,O=C(Nc1ccc(Cl)cc1)c1ccc2c(c1)S(=O)(=O)c1ccccc1C2=O,8.74
4,CCOC(=O)c1sc(NC(=O)CN(CC)CC)c(C(=O)OCC)c1C,13.3
5,Cc1ccccc1OCC(=O)OCC(=O)c1ccc[nH]1,-7.35
6,C/C(=N\NC(=O)c1ccc(CN2CCOCC2)cc1)c1ccc(NC(=O)c2ccccc2)cc1,-9.74
7,C=CCn1c(N)c(C(=O)NCc2ccco2)sc1=S,-5.83
8,Cc1ccccc1NC(=S)NNC(=O)c1csc2c1CCC(C)C2 (stereo not shown),9.44
9,Cc1ccccc1Oc1ccc(NC(=O)C2CC=CCC2C(=O)O)cc1 (stereo not shown),12
10,COC(=O)CN(c1ccc(OC)cc1)S(=O)(=O)c1c(C)noc1C,2.56
11,O=C(Nc1ccc(Cl)cc1)N1CCc2[nH]c3ccccc3c2C1,-17.9
12,CN1CCc2nc(SCC(=O)Nc3cccc(F)c3)c(C#N)c(-c3cccs3)c2C1,-62.3
13,CCC(=O)N(CC)c1nc(-c2ccc(OC)cc2)cs1,-5.81
14,CCc1ccccc1N(CC(=O)NCc1ccco1)C(=O)CCC(=O)Nc1ccccn1,-7.41
15,COc1ccc(C(=O)N(C)c2c(C)n(C)n(-c3ccccc3)c2=O)cc1OC,22.6
16,COn1c(=O)c(-c2ccc(Cl)cc2)[n+]([O-])c2ccccc21,3.06
17,O=C(Nc1ccccc1N1CCCCC1)c1cnccn1,-14.4
18,Cn1c(=O)c2c(ncn2CC(=O)N2CCN(S(=O)(=O)c3ccc(F)cc3)CC2)n(C)c1=O,-12.6
19,CC(C(=O)O)N(c1ccccc1Cl)S(C)(=O)=O (stereo not shown),-9.79
20,CCOC(=O)Cc1csc(NC(=O)CSC2=NCCS2)n1,8.47
21,Cc1nc(C(C)NC(=O)CCc2nnc(CCCc3ccccc3)o2)c(C)s1 (stereo not shown),-3.53
22,COc1ccc(Oc2c(O)c3ccccc3n(C)c2=O)cc1,7.23
23,Cc1cc(NC(=O)C2CC(=O)N(c3ccccc3C)C2)no1 (stereo not shown),16.1
24,CC(=O)c1cc(C#N)c(SCCC(C)C)nc1C,4.67
25,COc1cccc(N2CC(C(=O)Nc3nnc(SCC(=O)NCc4ccco4)s3)CC2=O)c1 (stereo not shown),13.8
26,CCOC(=O)c1ccc(N2C(=O)CC(Sc3nc(O)c(CC)c(=O)[nH]3)C2=O)cc1 (stereo not shown),25.8
27,CCOC(=O)C1CCCN(C(=O)c2ccc3c(c2)N(Cc2ccccc2)C(=O)c2ccccc2S3=O)C1 (stereo not shown),-13.2
28,CC12CNCC(C)(CNC1)C2O (stereo not shown),10.7

row,SMILES,"hERG current change (%, negative = inhibition) at 10uM [%]"
1,COC(=O)CNC(=O)COC(=O)c1cc(F)c(F)cc1Cl,5.29
2,OC(CSc1c(Cl)cccc1Cl)CN1CCN(c2ccccc2F)CC1 (stereo not shown),-39.8
3,COc1ccccc1COCC(O)CN1CCN(S(=O)(=O)c2cccc(F)c2)CC1 (stereo not shown),-16.9
4,O=C(COc1ccccc1)Nc1nc2cc3c(cc2s1)OCCO3,7.49
5,Cc1nc2cc(NC(=O)Nc3cccc(F)c3)ccc2n1C,0.0965
6,Nc1ccc(NC(=O)NC2CCCCC2)cc1,12.5
7,COc1cc(OC)c(NC(=O)CC(=O)Nc2cc(Cl)c(OC)cc2OC)cc1Cl,17.2
8,CCOc1cc(/C=N/N2C(=O)NC3(CCCCC3)C2=O)cc(Br)c1O,21.1
9,Cc1ccc(S(=O)(=O)NC2CC(C)(C)N(O)C(C)(C)C2)cc1.Cl,8.85
10,Cc1ccc(NC(=O)c2snc3ccc(Cl)cc23)cc1C,6.27
11,NS(=O)(=O)c1ccc(CCNC(=O)C(=O)c2cn(CC(=O)N3CCOCC3)c3ccccc23)cc1,21.1
12,CCC1C(=O)Nc2ccccc2N1C(=O)c1ccc(Cl)nc1 (stereo not shown),-7.27
13,NC(=O)C[C@@H]1N[C@]2(C(=O)Nc3ccccc32)[C@@H]2C(=O)N(c3cc(C(F)(F)F)ccc3Cl)C(=O)[C@H]12,4.19
14,CC(=O)c1c(C)nn(CC(=O)NC2CCCN(Cc3ccc(CC(C)C)cc3)C2)c1C (stereo not shown),-73.4
15,O=C(COc1ccccc1F)Nc1ccc(S(=O)(=O)Nc2nccs2)cc1,8.95
16,CCOC(=O)N1CCN(C(=O)c2ccc(OC(C)=O)cc2)CC1,16
17,Cc1ccc2cc(CN(CCCN3CCOCC3)C(c3nnnn3Cc3ccco3)C(C)C)c(=O)[nH]c2c1C (stereo not shown),-39.4
18,COc1cc([C@H]2Oc3cc([C@H]4Oc5cc(O)cc(O)c5C(=O)[C@@H]4O)ccc3O[C@@H]2CO)ccc1O,4.35
19,CCc1nonc1NC(=O)c1oc2ccc(Cl)cc2c1C,13.2
20,CCn1c2ccccc2c2cc(NC(=O)COC(=O)c3cc(S(N)(=O)=O)c(Cl)cc3Cl)ccc21,7.77
21,COc1ccc2c(c1)CCN(C(=O)CCl)C2C1C(=O)CCCC1=O (stereo not shown),5.82
22,CSCCC(=O)N1CCN(CC(=O)N2CCCC2)CC1,-9.49
23,CC(=O)Nc1ccc(N=C(C2=C(O)c3ccccc3C2=O)c2ccccc2)cc1,-6.31
24,O=C(/C=C\c1ccccc1)Nc1ccc(NC(=O)c2ccco2)cc1,7.91
25,CC(OC(=O)CNS(=O)(=O)c1ccc(C#N)cc1)C(=O)Nc1ccc(Cl)cn1 (stereo not shown),-45.3
26,O=C(Nc1ccc(S(=O)(=O)N2CCOCC2)cc1)c1ccc(=O)[nH]c1,11.9
27,CCN(CC)c1ccc(NC(=O)CCc2nnc3ccc(N4CCCC4)nn23)c(C)c1,-9.8
